# Laboratory results published in the supplement of paper PMC4967469.
# Lines with a small IC50 respond at low doses; a limit (>, <) means that the fit lies beyond the doses tested. AUC, from the same fit, is the share of area under the viability curve across the 256-fold dose range; the more sensitive the line, the further below 1. For part of these data: Where the top dose is marked as inferred, it was calculated from the reported fits. For part of these data: Where an entry number is given, a second screen of the drug exists; the two often differ.
# Assays:
# Assay in all cases: Viability of human cancer cell lines after 72 h of drug (GDSC screen)
# [1] = compound: NC(=O)c1cccc(-c2cc(Nc3ccc(OC(F)(F)F)cc3)ncn2)c1 [GNF-2]; conditions: top dose 1.28 µM; top dose inferred
# Protocol: (§1)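 Human cancer cell lines in 384-well plates, medium with 10% serum, drug for 72 h over a 256-fold dose range (nine 2-fold or five 4-fold steps up to the top dose). Adherent lines were fixed and stained with the nucleic acid dye Syto60, suspension lines read with resazurin; signal relative to control wells, capped at 0 and 100%. One two-parameter sigmoid per drug and line, fitted in a mixed model over all curves with the slope shared within a line.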
# [2] = compound: Nc1ccn([C@@H]2O[C@H](CO)[C@@H](O)C2(F)F)c(=O)n1 [Gemcitabine]; conditions: top dose 1.024 µM
# Protocol: as §1
# [3] = compound: Cc1cn(-c2cc(NC(=O)c3ccc(C)c(Nc4nccc(-c5cccnc5)n4)c3)cc(C(F)(F)F)c2)cn1 [Nilotinib]; conditions: top dose 2 µM
# Protocol: as §1
# [4] = compound: O=S(=O)(c1ccccc1)N(CC(F)(F)F)c1ccc(C(O)(C(F)(F)F)C(F)(F)F)cc1 [T0901317]; conditions: top dose 10.24 µM; top dose inferred
# Protocol: as §1
# [5] = compound: CC(C)c1ccccc1Cc1cc(C(=O)Nc2ccc(S(=O)(=O)c3ccccc3C(C)(C)C)cc2)c(O)c(O)c1O [TW-37]; conditions: top dose 5 µM
# Protocol: as §1
# [6] = compound: S=C(NCc1ccc2c(c1)OCO2)N1CCN(c2ncnc3c2oc2ccccc23)CC1 [MP470]; conditions: top dose 20 µM; top dose inferred
# Protocol: as §1
# [7] = compound: CCNC(=O)c1noc(-c2cc(C(C)C)c(O)cc2O)c1-c1ccc(CN2CCOCC2)cc1 [AUY922]; conditions: top dose 0.256 µM; top dose inferred
# Protocol: as §1
# [8] = compound: C/C(O)=C(\C#N)C(=O)Nc1cc(Br)ccc1Br [LFM-A13]; conditions: top dose 16 µM; top dose inferred
# Protocol: as §1
# [9] = compound: CC(O)(CS(=O)(=O)c1ccc(F)cc1)C(=O)Nc1ccc(C#N)c(C(F)(F)F)c1 [Bicalutamide]; conditions: top dose inferred
# Protocol: as §1
# [10] = compound: Cc1ccc(Nc2cc(-c3cccc(N4C(=O)c5ccccc5C4=O)c3)ncn2)cc1NS(C)(=O)=O [KIN001-270]; conditions: top dose 20 µM; top dose inferred
# Protocol: as §1
# [11] = top dose 1.024 µM, screen: GDSC drug entry 150
# [12] = top dose 10 µM, screen: GDSC drug entry 1502
Cell Line,AUC [1],IC50 [1] [nM],AUC [2],IC50 [2] [nM],AUC [3],IC50 [3] [nM],AUC [4],IC50 [4] [nM],AUC [5],IC50 [5] [nM],AUC [6],IC50 [6] [nM],AUC [7],IC50 [7] [nM],AUC [8],IC50 [8] [nM],"AUC [9, 11]","IC50 [9, 11] [nM]","AUC [9, 12]","IC50 [9, 12] [nM]",AUC [10],IC50 [10] [nM]
"KURAMOCHI (ovary, adherent)",0.969,> 1280,0.894,> 1020,0.984,> 2000,0.984,> 10200,0.721,1480,0.981,> 20000,0.62,36.1,0.969,> 16000,0.984,> 1020,0.982,> 10000,0.984,> 20000
"JJN-3 (haematopoietic neoplasm, suspension)",0.982,> 1280,0.825,472,0.938,> 2000,0.93,> 10200,0.609,585,0.874,13600,0.585,26.1,0.99,> 16000,0.992,> 1020,0.99,> 10000,0.984,> 20000
"TE-5 (oesophagus, adherent)",0.984,> 1280,0.117,< 4,0.956,> 2000,0.981,> 10200,0.68,1080,0.944,> 20000,0.957,> 256,0.961,> 16000,0.982,> 1020,0.965,> 10000,0.984,> 20000
"JVM-3 (lymphoid neoplasm, suspension)",0.987,> 1280,0.984,> 1020,0.912,> 2000,0.967,> 10200,0.478,272,0.824,12100,0.861,222,0.987,> 16000,0.987,> 1020,0.966,> 10000,0.984,> 20000
"LU-65 (large cell lung carcinoma, suspension)",0.987,> 1280,0.76,421,0.987,> 2000,0.98,> 10200,0.943,> 5000,0.946,> 20000,0.74,89.4,0.982,> 16000,0.987,> 1020,0.981,> 10000,0.975,> 20000
"D-502MG (glioma, adherent)",0.975,> 1280,0.978,> 1020,0.976,> 2000,0.974,> 10200,0.845,> 5000,0.969,> 20000,0.892,> 256,0.969,> 16000,0.977,> 1020,0.947,> 10000,0.956,> 20000
"NB6 (neuroblastoma, adherent)",0.975,> 1280,0.813,721,0.977,> 2000,0.98,> 10200,0.77,2340,0.911,> 20000,0.869,> 256,0.846,15900,0.96,> 1020,–,–,0.933,> 20000
"SNU-C1 (large intestine, suspension)",0.975,> 1280,0.972,> 1020,0.978,> 2000,0.965,> 10200,0.956,> 5000,0.848,> 20000,0.975,> 256,0.974,> 16000,0.979,> 1020,0.96,> 10000,0.973,> 20000
"NCI-H2135 (non-small cell lung carcinoma, adherent)",0.991,> 1280,0.469,52.8,0.991,> 2000,0.991,> 10200,0.972,> 5000,0.944,> 20000,0.577,25.7,0.98,> 16000,0.991,> 1020,0.985,> 10000,0.927,> 20000
"REH (B-cell leukaemia, suspension)",0.942,> 1280,0.25,12.7,0.969,> 2000,0.955,> 10200,0.662,861,0.905,> 20000,0.456,12.2,0.97,> 16000,0.983,> 1020,0.963,> 10000,0.955,> 20000
"SH-4 (melanoma, adherent)",0.931,> 1280,0.364,21.9,0.97,> 2000,0.975,> 10200,0.436,191,0.923,> 20000,0.633,45.9,0.91,> 16000,0.974,> 1020,0.929,> 10000,0.951,> 20000
"KS-1 (glioma, adherent)",0.973,> 1280,0.355,22.9,0.98,> 2000,0.98,> 10200,0.533,392,0.452,898,0.391,7.44,0.924,> 16000,0.98,> 1020,0.968,> 10000,0.95,> 20000
"JM1 (B-cell lymphoma, suspension)",0.989,> 1280,0.04,< 4,0.99,> 2000,0.377,309,0.469,260,0.513,1350,0.638,36.3,0.968,> 16000,0.991,> 1020,0.985,> 10000,0.939,> 20000
"L-1236 (Hodgkin lymphoma, suspension)",0.985,> 1280,0.417,39.3,0.992,> 2000,0.99,> 10200,0.397,171,0.946,> 20000,0.799,102,0.992,> 16000,0.992,> 1020,0.992,> 10000,0.988,> 20000
"KY821 (leukaemia, suspension)",0.992,> 1280,0.944,> 1020,0.991,> 2000,0.987,> 10200,0.893,4600,0.902,> 20000,0.729,64.5,0.992,> 16000,0.992,> 1020,0.991,> 10000,0.99,> 20000
"HSC-39 (stomach, suspension)",0.991,> 1280,0.984,> 1020,0.961,> 2000,0.967,> 10200,0.529,371,0.933,> 20000,0.944,> 256,0.991,> 16000,0.991,> 1020,0.99,> 10000,0.991,> 20000
"EW-3 (Ewing sarcoma, adherent)",0.984,> 1280,0.693,243,0.98,> 2000,0.984,> 10200,0.692,1180,0.894,> 20000,0.821,176,0.973,> 16000,0.983,> 1020,0.965,> 10000,0.971,> 20000
"KMOE-2 (acute myeloid leukaemia, suspension)",0.99,> 1280,0.646,–,0.888,1830,0.921,> 10200,0.481,279,0.915,> 20000,0.648,39.2,0.963,> 16000,0.989,> 1020,0.971,> 10000,0.94,> 20000
"L-363 (myeloma, suspension)",0.987,> 1280,0.618,128,0.964,> 2000,0.968,> 10200,0.556,434,0.441,884,0.594,27.9,0.987,> 16000,0.99,> 1020,0.977,> 10000,0.974,> 20000
"ROS-50 (B-cell leukaemia, suspension)",0.985,> 1280,0.894,> 1020,0.982,> 2000,0.964,> 10200,0.766,2340,0.944,> 20000,0.902,> 256,0.968,> 16000,0.983,> 1020,0.979,> 10000,0.977,> 20000
"NTERA-2 cl.D1 (testis, adherent)",0.974,> 1280,0.192,7.81,0.985,> 2000,0.98,> 10200,0.329,105,0.926,> 20000,0.549,21.8,0.979,> 16000,0.985,> 1020,0.928,> 10000,0.926,> 20000
"WSU-NHL (lymphoid neoplasm, suspension)",0.99,> 1280,0.442,45.4,0.955,> 2000,0.982,> 10200,0.375,148,0.941,> 20000,0.559,22.7,0.978,> 16000,0.99,> 1020,0.99,> 10000,0.923,> 20000
"CP66-MEL (melanoma, adherent)",0.986,> 1280,0.982,> 1020,0.986,> 2000,0.978,> 10200,0.724,1500,0.932,> 20000,0.694,61,0.955,> 16000,0.982,> 1020,0.983,> 10000,0.981,> 20000
"COLO-320-HSR (large intestine, suspension)",0.986,> 1280,0.468,53.1,0.979,> 2000,0.962,> 10200,0.517,345,0.94,> 20000,0.659,41.4,0.988,> 16000,0.988,> 1020,0.985,> 10000,0.957,> 20000
